How the values of the data set were obtained:
Absorption spectra were recorded on a Shimadzu UV-2100 spectrophotometer. Fluorescence spectra were measured with a Spex Fluorolog 3 spectrophotometer, with correction for the wavelength dependence system (RCA C31034 photomultiplier). Transient absorption spectra were measured with an Applied Photophysics LKS 60 nanosecond laser flash photolysis kinetic spectrometer, using the third harmonic of a Spectra-Physics Quanta Ray GCR 130-01 Nd/YAG laser for excitation, a Hamamatsu 1P28 photomultiplier and a Hewlett-Packard Infinium oscilloscope (1 GS/s). Flash photolysis measurements were made in the presence of air and in argon saturated solutions. Room-temperature singlet-oxygen phosphorescence was measured at 1270 nm with a Hamamatsu R5509-42 photomultiplier, cooled to 193 K in a liquid nitrogen chamber (Products for Research model PC176TSCE005), following laser excitation of aerated solutions at 355 nm, using an adapted Applied Photophysics spectrometer. […]
Photobleaching experiments were conducted in methanol:PBS (3:2) solutions, where PBS refers to phosphate-buffered saline solutions. […] For each compound, the absorbance was collected in time intervals from few minutes up to hours of irradiation. The initial absorbances of the compounds were ca. 1.0.
The transient lifetimes were measured at 400, 610 and 790 nm. […]

For `CNS(=O)(=O)c1ccc(F)c(-c2c3nc(c(-c4c(F)ccc(S(=O)(=O)NC)c4F)c4ccc([nH]4)c(-c4c(F)ccc(S(=O)(=O)NC)c4F)c4nc(c(-c5c(F)ccc(S(=O)(=O)NC)c5F)c5ccc2[nH]5)CC4)CC3)c1F` (single isomer, unassigned) [LUZ11-B], the “half-lives (photobleaching)” value was 4.8 min.

In the case of `CNS(=O)(=O)c1ccc(F)c(-c2c3nc(c(-c4c(F)ccc(S(=O)(=O)NC)c4F)c4ccc([nH]4)c(-c4c(F)ccc(S(=O)(=O)NC)c4F)c4nc(c(-c5c(F)ccc(S(=O)(=O)NC)c5F)c5ccc2[nH]5)CC4)CC3)c1F` (single isomer, unassigned) [LUZ11-A], the “half-lives (photobleaching)” value is 4.6 min.
